According to PubChem BioAssay AID588795 (National Center for Advancing Translational Sciences (NCATS), 2011):
Screen size: about 390,000 compounds; about 1,400 (0.36%) were called active. Inconclusive results, whose numbers are uncertain, are shown with a selection of clear calls. The call rests on the fitted dose curve; in most records, active means well fitted inhibition curve with a large enough effect; inconclusive means small, poorly fitted or top-dose-only effect; inactive means no such curve, though single readings can be large or run the other way. Potencies of inconclusive entries are doubtful fits and often do not repeat.
Further: nearly all actives have a fitted effect of over 65% in size.
Potency means the concentration at half of the fitted maximal effect; tags describe the fitted curve by direction and shape.

Each molecule was assayed against Flap endonuclease 1 (Homo sapiens) (UniProt P39748) (assay: qHTS Assay for the Inhibitors of Human Flap endonuclease 1 (FEN1).). Details: Recombinant FEN1 flap cleavage, fluorescence, 15 min; series mostly up to 114 µM.
Sequence of UniProt P39748 (P39748 whole entry, looked up): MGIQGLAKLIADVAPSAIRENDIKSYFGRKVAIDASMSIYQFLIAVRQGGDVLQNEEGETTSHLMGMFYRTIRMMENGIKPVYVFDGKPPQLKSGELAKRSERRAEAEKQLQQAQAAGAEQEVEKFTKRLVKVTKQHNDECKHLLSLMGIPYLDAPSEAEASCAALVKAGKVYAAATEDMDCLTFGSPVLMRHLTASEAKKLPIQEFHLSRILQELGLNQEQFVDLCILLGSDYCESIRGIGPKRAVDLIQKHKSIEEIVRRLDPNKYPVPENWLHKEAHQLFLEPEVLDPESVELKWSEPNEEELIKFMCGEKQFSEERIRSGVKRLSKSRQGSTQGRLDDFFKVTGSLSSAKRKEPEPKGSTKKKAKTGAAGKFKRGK
Method in brief: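 Potency values derive from four-parameter Hill fits of normalized qHTS data. The reaction used 10 nM FEN1 preincubated 15 min at room temperature with compound, then 50 nM DNA substrate, read at 0 and 15 min.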
With `C=CCNS(=O)(=O)c1cc2c3c(c1)CCN3C(=O)CC2` the Potency was inconclusive: 56.2 µM [inhibitor, partial curve, poor fit].
In the case of `CCC(=O)c1c[nH]c(C(=O)NCc2cccnc2)c1`, the Potency is reported as inconclusive: 39.8 µM [inhibitor, single point].
`S=C(NCCSCc1c(Cl)cccc1Cl)Nc1ccccc1` was tested, and the Potency was inconclusive: 44.7 µM [inhibitor, partial curve, poor fit].
`CCOC(=O)c1ccc(NC(=S)N(CCCN2CCCC(C)C2)Cc2cccs2)cc1` (configuration not stated) was tested, and the Potency was inconclusive: 79.4 µM [inhibitor, partial curve, poor fit].
In the case of `CCOc1ccc(CCNC(=O)c2nn(C)c3c2CSc2ccc(C)cc2-3)cc1OCC`, the Potency is reported as “inactive”.
`Cc1nc(CNS(=O)(=O)c2ccc(Br)cc2)cs1` was tested, and the Potency was inconclusive: 89.1 µM [inhibitor, single point].
With `CCCCCCc1cc2cc(-c3nnc(-c4ccccc4OC)o3)c(=O)oc2cc1O` the Potency was active: 44.7 µM.
For `CC(C)c1cccc(NC(=O)COC(=O)c2ccccc2OCc2cccc(Br)c2)c1`, the Potency was “inactive”.
With `Cc1[nH]c(=O)[nH]c(=O)c1NC(=O)c1sc2nc3c(C)cccc3cc2c1N` the Potency was inconclusive: 31.6 µM [inhibitor, partial curve, poor fit].
With `Cc1cccc2cc(CN(Cc3cccnc3)C(=S)NCCCN(C)C)c(=O)[nH]c12` the Potency was “inactive”.
In the case of `O=[N+]([O-])c1ccc2c(c1)-c1ccccc1C2=NO`, the Potency is reported as inconclusive: 31.6 µM [inhibitor, partial curve, poor fit].
With `Cc1cc(C)c(NC(=S)N(CCN2CCCCC2)Cc2ccco2)c(C)c1` the Potency was “inactive”.
In the case of `Cc1nnc(N2C(=O)c3ccc(Br)cc3C2=O)s1`, the Potency is reported as inconclusive: 25.1 µM [inhibitor, single point].
For `O=C(N/N=C\C=C\c1ccco1)c1cc(-c2ccc3ccccc3c2)n[nH]1`, the Potency was inconclusive: 89.1 µM [inhibitor, partial curve, poor fit].
In the case of `CCOC(=O)CC1(NC(=O)C2CCC(=O)N(C3CC3)C2)CCCCC1` (configuration not stated), the Potency is reported as “inactive”.
With `CS(=O)(=O)c1ccc2nc(NC(=O)c3cccc(NS(=O)(=O)c4ccc(F)c(F)c4)c3)sc2c1` the Potency was “inactive”.
`O=C(Cc1ccc(S(=O)(=O)N2CCOCC2)s1)Nc1nc2c(s1)CCCC2` was tested, and the Potency was inconclusive: 100 µM [inhibitor, single point].
For `O=C(Nc1ccc(C2=NCCN2)cc1)c1ccc(C(=O)Nc2ccc(C3=NCCN3)cc2)c(Cl)c1`, the Potency was active: 50.1 µM.
In the case of `COc1cc(-c2cc(-c3ccc(O)cc3)nc(N)c2C#N)ccc1O`, the Potency is reported as inconclusive: 79.4 µM [inhibitor, single point].
For `CC(=O)NC(c1ccc(C)cc1)c1cc(Cl)c2cccnc2c1O` (configuration not stated), the Potency was inconclusive: 12.6 µM [inhibitor, partial curve, poor fit].
In the case of `O=C1c2cccc3c(Cl)ccc(c23)C(=O)N1O`, the Potency is reported as active: 0.501 µM.
In the case of `Cc1nc(Nc2ccc3c(c2)OCCO3)c2oc3ccccc3c2n1`, the Potency is reported as inconclusive: 56.2 µM [inhibitor, partial curve].
With `CCOc1ccc2[nH]c3c(NCCC(C)C)ncnc3c2c1` the Potency was inconclusive: 56.2 µM [inhibitor, partial curve, poor fit].
In the case of `COc1cccc(-c2nn(C)c3sc(C(=O)NCCCN(C)Cc4ccccc4)cc23)c1`, the Potency is reported as inconclusive: 56.2 µM [inhibitor, partial curve, poor fit].
For `O=C1/C(=C\c2ccc(O)c(O)c2)Oc2c1ccc(O[C@@H]1O[C@H](CO)[C@@H](O)[C@H](O)[C@H]1O)c2O`, the Potency was inconclusive: 56.2 µM [inhibitor, partial curve, poor fit].
For `COc1ccc(-c2csc(NC(=O)CCn3cnc4ccccc4c3=O)n2)cc1OC`, the Potency was inconclusive: 56.2 µM [inhibitor, partial curve, poor fit].
In the case of `Cc1cc(C)cc(-n2ncc3c2CCCC3NC(=O)c2cc(C)oc2C)c1` (configuration not stated), the Potency is reported as “inactive”.
In the case of `O=S(=O)(NCc1ccccc1)c1ccccc1NCCc1ccccc1`, the Potency is reported as inconclusive: 79.4 µM [inhibitor, partial curve, poor fit].
For `COc1ccccc1OCCOCCOc1ccc(C)cc1Br`, the Potency was “inactive”.
In the case of `O=c1cc(-c2ccc(O)cc2)oc2ccc3ccccc3c12`, the Potency is reported as inconclusive: 89.1 µM [inhibitor, single point].
For `CCCNC(=S)N1CCN(c2nc(C)nc3sc4c(c23)CCCC4)CC1`, the Potency was inconclusive: 79.4 µM [inhibitor, partial curve, poor fit].
In the case of `CN(C)c1ccc(/C=C/c2ccccn2)cc1`, the Potency is reported as inconclusive: 100 µM [inhibitor, single point].
For `CN1CCN(CCCN2c3ccccc3Sc3ccc(Cl)cc32)CC1`, the Potency was inconclusive: 50.1 µM [inhibitor, partial curve].
For `CCOc1ccc(CNC(=O)c2sc3nc(C)cc(C)c3c2-n2cccc2)cc1`, the Potency was “inactive”.
With `O=C1S/C(=C\c2ccc(O)c([N+](=O)[O-])c2)C(=O)N1Cc1cccc([N+](=O)[O-])c1` the Potency was inconclusive: 79.4 µM [inhibitor, single point].
`CC(=O)N1N=C(c2ccccc2)OC1c1ccc([N+](=O)[O-])s1` (configuration not stated) was tested, and the Potency was inconclusive: 25.1 µM [inhibitor, partial curve, poor fit].
In the case of `CN(C)CCCN(C(=O)c1ccco1)c1nc(-c2ccc(Cl)cc2)cs1`, the Potency is reported as inconclusive: 20 µM [inhibitor, partial curve, poor fit].
In the case of `O=C1c2ccccc2C(=O)c2c1ccc(O)c2O`, the Potency is reported as active: 7.94 µM.
`COC(=O)[C@H](C)NC(=O)c1cc2c(cn1)[nH]c1ccccc12` was tested, and the Potency was inconclusive: 89.1 µM [inhibitor, single point].
For `O=c1c2cc(O)c(O)cc2oc2cc(O)c(C3OC(CO)C(O)C(O)C3O)c(O)c12` (configuration not stated), the Potency was “inactive”.
`COc1ccc(OC)c(NC(=O)C2CCN(S(=O)(=O)c3ccc(C)cc3)CC2)c1` was tested, and the Potency was inconclusive: 89.1 µM [inhibitor, single point].
With `NC(=O)Cc1ccc(C(=O)CSc2nnc(-c3ccncc3)n2C2CC2)s1` the Potency was inconclusive: 89.1 µM [inhibitor, single point].
